In article PMC9117617:
No constants are given. Whether binding was seen depends on the method and setting. For some assays here: In cells and extracts the contact can be indirect. Some entries that bind do so weakly or less than the wild type. Where a sequence is shown, tags or fusion partners need not be part of it.

Amino acid sequences for entries named in this document (tags omitted).
UniProt Q9Y2L8: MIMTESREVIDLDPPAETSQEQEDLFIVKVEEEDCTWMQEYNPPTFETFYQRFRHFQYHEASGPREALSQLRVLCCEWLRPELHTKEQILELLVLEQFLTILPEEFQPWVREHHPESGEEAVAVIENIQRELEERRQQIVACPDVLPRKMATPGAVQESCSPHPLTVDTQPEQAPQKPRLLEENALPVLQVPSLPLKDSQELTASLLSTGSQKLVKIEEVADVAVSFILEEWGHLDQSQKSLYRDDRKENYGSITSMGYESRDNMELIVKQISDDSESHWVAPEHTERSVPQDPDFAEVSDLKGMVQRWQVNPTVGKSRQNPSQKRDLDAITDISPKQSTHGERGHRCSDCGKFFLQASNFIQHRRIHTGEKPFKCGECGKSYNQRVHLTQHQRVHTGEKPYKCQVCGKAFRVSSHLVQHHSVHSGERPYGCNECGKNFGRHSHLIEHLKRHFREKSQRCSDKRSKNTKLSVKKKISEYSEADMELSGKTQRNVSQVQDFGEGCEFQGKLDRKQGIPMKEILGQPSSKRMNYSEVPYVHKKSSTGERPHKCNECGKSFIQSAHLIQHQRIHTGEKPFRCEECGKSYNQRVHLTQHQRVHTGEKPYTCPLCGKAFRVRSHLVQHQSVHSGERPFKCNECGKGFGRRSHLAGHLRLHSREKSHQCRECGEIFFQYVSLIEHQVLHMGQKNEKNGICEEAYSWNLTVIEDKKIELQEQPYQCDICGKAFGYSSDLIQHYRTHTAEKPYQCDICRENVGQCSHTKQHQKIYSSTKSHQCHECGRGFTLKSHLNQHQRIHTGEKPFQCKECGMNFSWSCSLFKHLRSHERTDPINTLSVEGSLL

How the values were obtained:
GST-SETD7 = biological target: T1, GST-SETD7 (UniProt Q8WTS6); experiment: pull-down; GST pull-down: purified His or GST fusion proteins bound to GST beads, co-incubated at 4°C for 4 h with protease inhibitors; Western blot; both purified
T1 sequence: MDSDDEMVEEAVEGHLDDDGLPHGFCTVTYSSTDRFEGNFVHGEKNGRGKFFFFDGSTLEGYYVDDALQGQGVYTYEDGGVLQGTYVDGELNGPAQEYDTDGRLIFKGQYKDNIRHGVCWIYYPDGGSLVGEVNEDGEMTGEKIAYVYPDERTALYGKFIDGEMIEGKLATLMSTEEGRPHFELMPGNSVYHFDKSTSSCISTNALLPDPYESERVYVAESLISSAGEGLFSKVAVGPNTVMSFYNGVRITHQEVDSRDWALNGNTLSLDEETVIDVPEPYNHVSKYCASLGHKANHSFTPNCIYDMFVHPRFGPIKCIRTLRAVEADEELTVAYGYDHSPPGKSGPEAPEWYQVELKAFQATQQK

[1] = biological target: T2, FLAG-tagged SET7 (108–214), middle-region fragment (UniProt Q8WTS6); experiment: co-IP; HEK293T cells co-transfected with a MYC-tagged and a FLAG-tagged construct; anti-FLAG immunoprecipitation of cell lysates, immunoblot
T2 sequence: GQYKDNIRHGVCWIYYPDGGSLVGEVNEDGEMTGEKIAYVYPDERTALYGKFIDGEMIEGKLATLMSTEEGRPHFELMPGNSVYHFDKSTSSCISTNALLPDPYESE

[2] = biological target: T3, FLAG-tagged SET7 N-terminal region (1–107) (UniProt Q8WTS6); experiment: as above
T3 sequence: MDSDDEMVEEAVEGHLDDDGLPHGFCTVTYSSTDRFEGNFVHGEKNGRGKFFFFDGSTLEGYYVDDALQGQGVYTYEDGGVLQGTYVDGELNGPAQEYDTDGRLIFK

[3] = biological target: T4, FLAG-tagged SET7 (215–366), SET domain-containing fragment (UniProt Q8WTS6); experiment: as above
T4 sequence: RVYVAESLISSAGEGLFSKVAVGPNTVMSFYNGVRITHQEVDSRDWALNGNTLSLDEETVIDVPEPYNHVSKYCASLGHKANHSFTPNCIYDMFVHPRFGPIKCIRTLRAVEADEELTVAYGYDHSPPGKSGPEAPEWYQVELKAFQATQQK

[4] = biological target: T5, histone methyltransferase SETD7, endogenous (human (endogenous in ZR75-1)) (UniProt Q8WTS6); experiment: co-IP; endogenous proteins in ZR75-1 cell lysate (sonicated); antibodies at 4°C overnight, Protein A Agarose; Western blot; reciprocal
T5 sequence: T1 sequence

His-tagged ZKSCAN5 (from UniProt Q9Y2L8 1-839)
binding (GST-SETD7): binds

MYC-tagged ZKSCAN5 (from UniProt Q9Y2L8 1-839)
binding [1]: no binding | binding [2]: no binding | binding [3]: binds

zinc finger with KRAB and SCAN domains 5 (ZKSCAN5), endogenous (from UniProt Q9Y2L8 1-839)
binding [4]: binds
